Results taken from article PMC4336329 (PLoS ONE, 2015).
Out of some 310,000 compounds screened, about 2,200 (0.71%) showed an effect of 50% or more. The effect is printed as a negative number. This is one part of the list.

biological target: human ether-à-go-go-related gene (hERG) potassium channel (human, UniProt Q12809); experiment: primary screen, population patch clamp on CHO cells stably expressing hERG
Sequence (Q12809 whole entry, looked up): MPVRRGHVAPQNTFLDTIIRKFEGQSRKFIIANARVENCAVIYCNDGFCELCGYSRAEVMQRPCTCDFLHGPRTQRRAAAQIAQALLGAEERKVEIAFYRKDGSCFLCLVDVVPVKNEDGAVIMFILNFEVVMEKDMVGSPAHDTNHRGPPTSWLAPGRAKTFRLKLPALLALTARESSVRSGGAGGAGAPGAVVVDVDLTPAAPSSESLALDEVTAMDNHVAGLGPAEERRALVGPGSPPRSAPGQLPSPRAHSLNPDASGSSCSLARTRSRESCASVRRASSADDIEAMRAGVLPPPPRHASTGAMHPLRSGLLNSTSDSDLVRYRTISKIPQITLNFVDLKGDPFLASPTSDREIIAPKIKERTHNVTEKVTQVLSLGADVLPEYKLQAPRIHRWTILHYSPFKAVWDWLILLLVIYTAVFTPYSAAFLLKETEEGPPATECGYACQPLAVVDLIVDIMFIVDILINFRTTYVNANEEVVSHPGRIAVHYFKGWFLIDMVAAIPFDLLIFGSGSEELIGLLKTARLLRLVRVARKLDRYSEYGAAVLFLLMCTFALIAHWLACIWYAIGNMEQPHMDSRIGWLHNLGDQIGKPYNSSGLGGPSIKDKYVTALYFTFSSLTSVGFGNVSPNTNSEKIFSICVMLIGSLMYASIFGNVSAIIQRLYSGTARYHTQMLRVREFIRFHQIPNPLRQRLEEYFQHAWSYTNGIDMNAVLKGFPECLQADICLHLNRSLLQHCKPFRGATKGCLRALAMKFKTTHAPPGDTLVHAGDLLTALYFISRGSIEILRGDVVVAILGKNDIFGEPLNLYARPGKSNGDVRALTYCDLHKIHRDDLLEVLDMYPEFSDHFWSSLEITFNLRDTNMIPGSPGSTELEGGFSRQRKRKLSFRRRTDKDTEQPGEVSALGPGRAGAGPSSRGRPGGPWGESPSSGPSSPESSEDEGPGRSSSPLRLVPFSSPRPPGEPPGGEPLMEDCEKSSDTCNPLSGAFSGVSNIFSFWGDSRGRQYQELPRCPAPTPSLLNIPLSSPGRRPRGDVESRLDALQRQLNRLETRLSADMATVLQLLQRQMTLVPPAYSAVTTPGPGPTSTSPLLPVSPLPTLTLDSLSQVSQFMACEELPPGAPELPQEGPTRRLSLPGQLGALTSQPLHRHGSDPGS

Row | Structure (SMILES) | hERG current change (%, negative = inhibition) at 1uM [%]
1 | Clc1ccc(-c2ccc(CN3CCCCC3)o2)cc1 | 12.4
2 | Cc1cc2c(n1-c1ccc(Br)cc1)CC(C)(C)CC2=O | 3.2
3 | Cc1ccnc(NC(=O)c2cccc(S(=O)(=O)NCc3ccccc3)c2)c1 | 12.6
4 | Nc1c(C(=O)NC2CCCCC2)nsc1C(=O)OCC(=O)NC1CCCCC1 | 15.3
5 | COc1ccccc1NC(=O)c1cc2c(CO)cnc(C)c2oc1=Nc1ccccc1 | 14
6 | CN(Cc1nccs1)C(=O)C1CCC(=O)N(Cc2ccccc2F)C1 (stereo not drawn) | 7.29
7 | COCCOC(=O)c1c(C)oc2ccc(OC(=O)c3cccs3)cc12 | 12.9
8 | Cc1cccc(N2CC(c3nc4ccccc4[nH]3)CC2=O)c1 (stereo not drawn) | 6.24
9 | COc1ccc(OCCOc2ccccc2[N+](=O)[O-])cc1 | 5.72
10 | CCC(C)(C)NC(=O)c1ccccc1Oc1ccccc1 | 6.02
11 | CC(=O)Nc1c(I)c(NC(C)=O)c(I)c(C(=O)O)c1I.CNC[C@H](O)[C@@H](O)[C@H](O)[C@H](O)CO | 17.7
12 | COC(=O)c1ccc(C(C(=O)NCc2ccccc2)N(Cc2ccco2)C(=O)c2cnccn2)cc1 (stereo not drawn) | -0.742
13 | CC1C(C)N1CC(O)Cn1ccnc1[N+](=O)[O-] (stereo not drawn) | 6.59
14 | O=C(O)c1ccccc1NC(=O)C(Cc1ccccc1)N1C(=O)c2ccccc2C1=O (stereo not drawn) | 17
15 | CN(C(=O)CN1C(=O)CCSc2ccc(S(=O)(=O)N3CCCC3)cc21)c1ccccc1 | 2.25
16 | Cc1cc([N+](=O)[O-])nn1CC(=O)Nc1ccc(Cl)cn1 | -1.05
17 | O=C(CSc1nc2ccccc2[nH]1)N=Nc1c(O)[nH]c2ccccc12 | 10.9
18 | CCOc1ccc(-c2cc(C(=O)NN)[nH]n2)cc1 | 2.32
19 | Cc1ccc(NC(=O)Cc2ncc(C(F)(F)F)cc2Cl)cc1Cl | -1.28

Row | Structure (SMILES) | hERG current change (%, negative = inhibition) at 1uM [%]
20 | Clc1ccc(-c2nc(-c3ccccn3)no2)cc1Cl | 3.92
21 | CCOc1ccc(Nc2nc(-c3sc(N)nc3C)cs2)cc1 | 15.1
22 | O=C(Nc1ncc(Cc2ccccc2Cl)s1)C1CCCO1 (stereo not drawn) | 14.2
23 | CC(C)C(C)(C#N)NC(=O)CSc1nnc(-c2ccccc2)o1 (stereo not drawn) | 0.833
24 | CCN(C(=O)CSc1ncn[nH]1)c1cccc2ccccc12 | 7.22
25 | O=C(CCc1nnc2ccc(N3CCCC3)nn12)Nc1ccc(F)c(F)c1 | 10.1
26 | CCC1Sc2ccccc2N(CC(=O)NC2CCCC2)C1=O (stereo not drawn) | 8.72
27 | Cc1ccc(NC(=O)CSc2ncc3ccccn23)cc1 | 11.1
28 | CCOCCCn1c(=S)[nH]c2cc(C(=O)N3CCN(c4ccccc4)CC3)ccc2c1=O | 15.4
29 | Cc1ccccc1CN1C(=O)Nc2ccccc2C(=O)N1C(C)(C)C | 5.98
30 | COc1cc(NC(=O)CN(C)S(=O)(=O)c2ccc3c(c2)CC(C)N3C(C)=O)cc(OC)c1OC (stereo not drawn) | 17.2
31 | Cn1cccc1/C=N/n1cnnc1 | -2.75
32 | Cc1ccc(C(C)C)c(OCC(=O)N2CCOCC2)c1 | 2.8
33 | COCCNC(=O)C(OC(=O)c1ccco1)c1ccccc1OC (stereo not drawn) | 11.2
34 | c1ccc(CSc2nnc(-c3ccccc3)c(-c3ccccc3)n2)cc1 | 6.21
35 | O=C(Cn1cc(C(F)(F)F)ccc1=O)N/N=C/c1ccc(O)cc1 | 12.3
36 | COc1ccc(/C(C)=N/NC(=O)CNC(=O)/C=C\c2ccccc2)c(OC)c1 | 12.2
37 | COCCNC(=O)CSc1nc2cc(OC)c(OC)cc2c(=O)n1Cc1ccco1 | -14.1
38 | Cc1ccc(C(=O)SC2=NCCS2)cc1 | 5.07

Row | Structure (SMILES) | hERG current change (%, negative = inhibition) at 1uM [%]
39 | OCc1ccccc1SSc1ccccc1CO | 13.8
40 | O=C(Nc1nccs1)C1CC=CCC1 (stereo not drawn) | 14.4
41 | O=C(Cc1ccon1)c1ccc(O)cc1O | 11.3
42 | Cc1ccc(OCC(=O)Nc2ccc(-c3nc4ncccc4o3)cc2)cc1 | 14.1
43 | O=C1/C(=C\c2cc(Br)cc(Br)c2O)SC(=S)N1Cc1ccccc1 | 14.5
44 | CC(C)n1c(-c2cccnc2)nc2cnccc21 | 8.82
45 | C=CCNc1nc(N)c(C(=O)Nc2cc(C)on2)s1 | 12.5
46 | Cc1[nH]c2ccccc2c1C(=O)CSc1nc2ncc(Cl)cc2[nH]1 | 14.3
47 | COC(=O)[C@]1(Cc2ccccc2)N[C@H](c2ccc(-c3ccc(F)cc3)cc2)[C@@H]2C(=O)N(C)C(=O)[C@@H]21.O=C(O)C(F)(F)F | 13.4
48 | Cc1oc(-c2nc3ccccc3n2C)cc1C(=O)c1ccccc1 | 7.96
49 | Cc1cc(SCC(=O)Nc2cccc(S(=O)(=O)NC3=NCCCCC3)c2)nc2ccccc12 | -1.53
50 | CCC(C)(C)NC(=O)C(c1ccncc1)N(Cc1cccs1)C(=O)Cn1nnc2ccccc21 (stereo not drawn) | -13
51 | O=C1CCC([N+](=O)[O-])C(c2ccc(Cl)cc2)N1 (stereo not drawn) | -0.713
52 | CC(C)CC(/C(O)=C(\C#N)c1nc2ccccc2[nH]1)N1C(=O)c2ccccc2C1=O (stereo not drawn) | 16.4
53 | CCN(CC(=O)Nc1c(F)cccc1F)C(=O)CCNS(=O)(=O)c1ccccc1C(F)(F)F | 12.3
54 | CCc1cc2c(cc3c(=O)n(CC(=O)NCCCN(CC)CC)nc(CC)n32)s1 | 8.7
55 | N#CC1(CCCN2CCCCC2)c2ccccc2CCc2ccccc21.O=C(O)C(=O)O | -28.3
56 | CCOc1ccccc1N1CCN(S(=O)(=O)c2cc(C)ccc2OC)CC1 | 10.1
57 | CN1/C(=C\C(=S)NC(=O)c2ccccc2Cl)C(C)(C)c2ccccc21 | 18.4
